Results: PubChem BioAssay AID485297 (National Center for Advancing Translational Sciences (NCATS), 2010)
Screen size: about 320,000 compounds; about 9,100 (2.8%) were called active. Inconclusive means that the source gave no clear call. Such entries were picked first, then a sample of the others. Calls follow the shape of the dose curve; as a rule, active = well fitted activation curve with a large enough effect; inconclusive = small, poorly fitted or top-dose-only effect; inactive = no such curve, though single readings can be large or run the other way. Potencies of inconclusive entries are left out as doubtful fits.

Assay: qHTS Assay for Rab9 Promoter Activators; also: nearly all actives have a fitted effect of over 60% in size
Conditions: Huh7 Rab9 promoter-luciferase reporter, luminescence, 24 h; series mostly up to 9.22 µM
Method in brief: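 Using Huh7 cells stably transfected with Rab9 promoter–luciferase, compounds were incubated 24 h at 37 °C, 5% CO2; luciferase luminescence was read 10 min after reagent addition.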
Potency is read from the fitted curve at half-maximal effect; tags tell the direction and shape of the fitted curve.

Row | Compound | Potency
1 | COc1ccccc1-c1coc2cc(O)cc(O)c2c1=O | inconclusive [activator, single point]
2 | COc1ccc2cc(C#N)c(N3CCOCC3)nc2c1 | inactive
3 | CN(C)CCN(C(=O)c1ccc(S(=O)(=O)N(C)C)cc1)c1nc2cc3c(cc2s1)OCCO3 | inconclusive [activator, single point]
4 | COc1ccccc1C(=O)Nc1ccnn1C1CCN(CCCc2ccccc2)CC1 | inactive
5 | Cc1ccsc1/C=N/Nc1ncnc2nc[nH]c12 | active: 3.55 µM
6 | Cc1nnc(NC(=O)c2cc3ccccc3o2)s1 | inconclusive [activator, single point]
7 | CC(C)c1ccc(/C=C/C2=NNC(=O)CC2)cc1 | inconclusive [activator, partial curve]
8 | O=C(Nc1ccccc1Cl)NC1CCCCCCC1 | inconclusive [activator, partial curve]
9 | O=C(/C=C/c1ccc2c(c1)OCCO2)c1ccc(O)cc1 | inconclusive [activator, single point]
10 | O=C1c2ccccc2C(=O)N1CC(O)COc1ccccc1Cl (stereo unspecified) | inconclusive [activator, partial curve]
11 | COc1ccc(C(=O)Cc2ccc(F)cc2)c(OC)c1 | inconclusive [activator, partial curve]
12 | CC(C)c1ccc(NC(=O)Cn2ncc3ccccc32)cc1 | inconclusive [activator, full curve]
13 | COc1ccc(-c2cc(-c3cc(OC)ccc3O)[nH]n2)cc1 | inconclusive [activator, partial curve]
14 | CCC(=O)Nc1cccc(NC(=O)c2ccc3c(c2)OCCO3)c1 | inconclusive [activator, partial curve]
15 | CC(C)CCn1c(Oc2ccc(Cl)cc2)nc2c1c(=O)n(C)c(=O)n2C | inactive
16 | CC(=O)Nc1ccc(NC(=O)CSc2nnc(NC(=O)c3ccc(Br)o3)s2)cc1 | inactive
17 | CC(C)c1ccc(C(=O)Nc2cccnc2)cc1 | inconclusive [activator, single point]
18 | COc1ccccc1N1CCN(C(=O)CN2C(=O)C3CCCCC3C2=O)CC1 (stereo unspecified) | inconclusive [activator, partial curve]
19 | c1ccc2cc(-c3cc4ccccn4c3)ccc2c1 | active: 3.16 µM
20 | O=C(Nc1ccc(C(=O)O)cc1)Nc1ccc([N+](=O)[O-])cc1 | inactive
21 | Cc1ccc(O)c(NC(=S)NC(=O)CC(C)C)c1 | inconclusive [activator, partial curve]
22 | Cc1ccc(C)c(NC(=S)NNC(=O)c2csc(C)c2C)c1 | inconclusive [activator, single point]
23 | Cc1cccc(NC(=O)NCc2ccc3c(c2)OCO3)c1 | inconclusive [activator, partial curve]

Row | Compound | Potency
24 | Cc1cc(N2CCOCC2)ccc1/C=C1\NC(=O)N(CC(=O)Nc2ccc(F)cc2)C1=O | inconclusive [activator, partial curve]
25 | Cc1cccc(NC(=O)c2cccc(C(F)(F)F)c2)c1 | inconclusive [activator, partial curve]
26 | COc1ccc(-c2cn(Cc3ccc(C(=O)c4ccccc4)cc3)nn2)cc1 | inconclusive [activator, partial curve]
27 | Cn1c(C(=O)Nc2ccc3c(c2)OCO3)cc2sccc21 | active: 1.58 µM
28 | NC(=O)c1c(NC(=O)C2CCCO2)sc2c1CCCCC2 (stereo unspecified) | inconclusive [activator, partial curve]
29 | CCOC(=O)C(C)N1N=C(/C=C/c2ccc(OC)cc2)CCC1=O (stereo unspecified) | inactive
30 | CC(C)Cc1ccc(C(=O)NCCOc2ccccc2)o1 | active: 0.794 µM
31 | O=C(Nc1cccc(F)c1)c1ccccc1 | inconclusive [activator, single point]
32 | Cc1cc(C(=O)Nc2cccc(-c3ccc(N4CCOCC4)nn3)c2)ccc1[N+](=O)[O-] | inconclusive [activator, partial curve]
33 | O=C(/C=C/c1ccccc1Cl)Nc1cccc(O)c1 | inconclusive [activator, single point]
34 | Nc1nc2nccc(-c3ccc(Cl)cc3)n2n1 | inconclusive [activator, partial curve]
35 | Cc1c(/C(O)=C2\C(=O)C(=O)N(CCN(C)C)C2c2ccco2)cnn1-c1ccccc1 (stereo unspecified) | inconclusive [activator, single point]
36 | CNc1nc(Nc2ccc(C)c(Cl)c2)nc(N)c1[N+](=O)[O-] | inconclusive [activator, partial curve]
37 | COC(=O)N/N=C/c1cc(C)n(-c2ccccc2)c1C | inconclusive [activator, single point]
38 | COC(=O)c1ccc2c(C(C)(C)O)c(C(C)(C)O)[nH]c2c1 | inconclusive [activator, partial curve]
39 | COc1ccc(C(=S)Nc2ccccc2)cc1 | inconclusive [activator, partial curve]
40 | CC(C)n1cnnc1SCC(=O)NCC(=O)Nc1ccc(F)cc1 | inactive
41 | Cc1ccc(NC(=O)CSc2nccn2Cc2ccccc2)cc1C | inconclusive [activator, single point]
42 | CCOC(=O)c1c(NC(=O)CC)sc(C(=O)NC2CCCC2)c1C | inconclusive [activator, partial curve]
43 | Cc1ccc(-n2ncc3c(SCc4ccccc4)ncnc32)cc1 | inconclusive [activator, partial curve]
44 | Cc1cccc(NC(=O)c2nc[nH]c2C(=O)N2CCc3ccccc3C2)c1 | inactive
45 | O=C1NC(=S)S/C1=C\c1coc2ccccc2c1=O | inconclusive [activator, single point]
46 | CC(=O)c1ccc(Nc2ncnc3c2oc2ccccc23)cc1 | inconclusive [activator, partial curve]
